# Test results from the supplement of paper PMC10037445.
# Values joined by “and” are separate entries in the source; they are usually repeats but may differ in a detail not shown here. Equal entries are not always repeated. Whole data set: some 2,900 compounds, median “IRF Lucia reporter activity, fold change vs agonist alone” near 0.9, cut for the highest 2% near 2.8. Some of the results follow.
# Key:
# [1] = system: RAW-Dual; assay: IRF Lucia reporter activity, fold change vs agonist alone; higher = enhanced IRF activity; details: agonist: MPLA (TLR4) […]
# Method in brief: (§1)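 Supernatant from RAW-Dual macrophages was read after 20 hours for IRF by QuantiLuc luminescence and for NF-κB by QuantiBlue absorbance at 620 nm. The cells (50,000 cells/well in DMEM, 384-well plates, 37 °C, 5% CO2) had received 50 nL of library stock by pin tool and, 1 h later, a PRR agonist. Reporter activity is expressed relative to agonist-alone wells as fold change, and wells were flagged cytotoxic if IncuCyte confluency was under 70% of agonist controls in both mask sets.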
# [2] = system: RAW-Dual; assay: IRF Lucia reporter activity, fold change vs agonist alone; cytotoxicity flag (confluency mask): not cytotoxic; higher = enhanced IRF activity
# Method in brief: as §1
# [3] = system: RAW-Dual; assay: IRF Lucia reporter activity, fold change vs agonist alone; cytotoxicity flag (confluency mask): cytotoxic (confluency <70% of control); higher = enhanced IRF activity
# Method in brief: as §1
# [4] = library stock concentration (final ~1000-fold dilution): 10 mM, cytotoxicity flag (confluency mask): not cytotoxic
# [5] = agonist: 3'3'-cGAMP (STING) 10 ug/mL
# [6] = library stock concentration (final ~1000-fold dilution): 10 mM, cytotoxicity flag (confluency mask): cytotoxic (confluency <70% of control)
structure (smiles),measurement,setting,value
CC(C)CC(NC(=O)C(O)C(N)Cc1ccccc1)C(=O)O (centres undefined),IRF Lucia reporter activity,[1]; [4],0.954
CC(C)CC(NC(=O)C(O)C(N)Cc1ccccc1)C(=O)O (centres undefined) (library stock concentration (final ~1000-fold dilution): 10 mM),IRF Lucia reporter activity,[2]; [5],1.02
same,IRF Lucia reporter activity,[2]; agonist: LPS (TLR4) 0.1 ug/mL,0.897
C=CCNC(N)=S,IRF Lucia reporter activity,[1]; [4],1.03
C=CCNC(N)=S (library stock concentration (final ~1000-fold dilution): 10 mM),IRF Lucia reporter activity,[2]; [5],1.08 and 0.787
same,IRF Lucia reporter activity,[2]; agonist: LPS (TLR4) 0.1 ug/mL,1.14 and 1.03
COc1cccc(-c2cc(=O)c3ccccc3o2)c1N (library stock concentration (final ~1000-fold dilution): 10 mM),IRF Lucia reporter activity,[2]; [5],0.722
same,IRF Lucia reporter activity,[2]; agonist: LPS (TLR4) 0.1 ug/mL,1.13
COc1cccc(-c2cc(=O)c3ccccc3o2)c1N,IRF Lucia reporter activity,[1]; [4],1.06
CCCn1c(NC(=O)c2cccc(C(N)=O)c2)nc2ccccc21 (library stock concentration (final ~1000-fold dilution): 10 mM),IRF Lucia reporter activity,[2]; [5],0.617
same,IRF Lucia reporter activity,[2]; agonist: LPS (TLR4) 0.1 ug/mL,0.289
Cc1cn(CCN2CCN(c3ccccc3-c3cc(C#N)cc(C(=O)NCCCN4CCCC4)c3)CC2)c2ccccc12,IRF Lucia reporter activity,[1]; [6],0.0268
Cc1cn(CCN2CCN(c3ccccc3-c3cc(C#N)cc(C(=O)NCCCN4CCCC4)c3)CC2)c2ccccc12 (library stock concentration (final ~1000-fold dilution): 10 mM),IRF Lucia reporter activity,[3]; [5],0.403
same,IRF Lucia reporter activity,[3]; agonist: LPS (TLR4) 0.1 ug/mL,0.0293
O=C(CCc1ccc(O)cc1)c1c(O)cc(O)cc1O (library stock concentration (final ~1000-fold dilution): 10 mM),IRF Lucia reporter activity,[2]; [5],0.81
same,IRF Lucia reporter activity,[2]; agonist: LPS (TLR4) 0.1 ug/mL,0.76
O=C(CCc1ccc(O)cc1)c1c(O)cc(O)cc1O,IRF Lucia reporter activity,[1]; [4],0.853
N#Cc1cccc(-c2c[nH]c3ncnc(N4CCOCC4)c23)c1 (library stock concentration (final ~1000-fold dilution): 10 mM),IRF Lucia reporter activity,[2]; [5],0.11
same,IRF Lucia reporter activity,[2]; agonist: LPS (TLR4) 0.1 ug/mL,0.291
CN(CC(=O)N(Cc1ccc(C2CCCCC2)cc1)c1ccc(C(=O)O)cc1)S(=O)(=O)c1c(F)c(F)c(F)c(F)c1F,IRF Lucia reporter activity,[1]; [6],0.118
CN(CC(=O)N(Cc1ccc(C2CCCCC2)cc1)c1ccc(C(=O)O)cc1)S(=O)(=O)c1c(F)c(F)c(F)c(F)c1F (library stock concentration (final ~1000-fold dilution): 10 mM),IRF Lucia reporter activity,[3]; [5],0.0132
same,IRF Lucia reporter activity,[3]; agonist: LPS (TLR4) 0.1 ug/mL,0.366
OC(CNCC(O)C1CCc2cc(F)ccc2O1)C1CCc2cc(F)ccc2O1 (centres undefined),IRF Lucia reporter activity,[1]; [6],1.36
OC(CNCC(O)C1CCc2cc(F)ccc2O1)C1CCc2cc(F)ccc2O1 (centres undefined) (library stock concentration (final ~1000-fold dilution): 10 mM),IRF Lucia reporter activity,[3]; [5],0.476
same,IRF Lucia reporter activity,[3]; agonist: LPS (TLR4) 0.1 ug/mL,0.897
C=CC(=O)Nc1cc2c(Nc3ccc(F)c(Cl)c3)ncnc2cc1OCCCN1CCOCC1,IRF Lucia reporter activity,"[1]; library stock concentration (final ~1000-fold dilution): 2 mM, cytotoxicity flag (confluency mask): not cytotoxic",0.819
C=CC(=O)Nc1cc2c(Nc3ccc(F)c(Cl)c3)ncnc2cc1OCCCN1CCOCC1 (library stock concentration (final ~1000-fold dilution): 2 mM),IRF Lucia reporter activity,[2]; [5],0.153
same,IRF Lucia reporter activity,[2]; agonist: LPS (TLR4) 0.1 ug/mL,0.287
O=C(NCc1ccccc1)c1csc(Nc2ccncn2)n1 (library stock concentration (final ~1000-fold dilution): 10 mM),IRF Lucia reporter activity,[2]; [5],0.653
same,IRF Lucia reporter activity,[2]; agonist: LPS (TLR4) 0.1 ug/mL,0.508
O=C(NCc1ccccc1)c1csc(Nc2ccncn2)n1,IRF Lucia reporter activity,[1]; [4],0.401
CNCc1ccc(-c2cc(-c3nc(-c4ccc(S(=O)(=O)C(C)C)cc4)cnc3N)on2)cc1,IRF Lucia reporter activity,[1]; [4],1.08
CNCc1ccc(-c2cc(-c3nc(-c4ccc(S(=O)(=O)C(C)C)cc4)cnc3N)on2)cc1 (library stock concentration (final ~1000-fold dilution): 10 mM),IRF Lucia reporter activity,[2]; [5],0.965
same,IRF Lucia reporter activity,[2]; agonist: LPS (TLR4) 0.1 ug/mL,0.9
COC(=O)Nc1nc2ccc(C(=O)c3cccs3)cc2[nH]1 (library stock concentration (final ~1000-fold dilution): 10 mM),IRF Lucia reporter activity,[3]; [5],0.119
same,IRF Lucia reporter activity,[3]; agonist: LPS (TLR4) 0.1 ug/mL,1.5
COC(=O)Nc1nc2ccc(C(=O)c3cccs3)cc2[nH]1,IRF Lucia reporter activity,[1]; [6],1.92
Nc1ncc2[nH]cnc2n1 (library stock concentration (final ~1000-fold dilution): 1000 mM),IRF Lucia reporter activity,[2]; [5],0.741
same,IRF Lucia reporter activity,[2]; agonist: LPS (TLR4) 0.1 ug/mL,0.514
CCCC(=O)OC[C@@H](OC(=O)CCC)[C@@H](OC(=O)CCC)[C@H](Cn1c2nc(=O)[nH]c(=O)c-2nc2cc(C)c(C)cc21)OC(=O)CCC (library stock concentration (final ~1000-fold dilution): 10 mM),IRF Lucia reporter activity,[2]; [5],0.581
same,IRF Lucia reporter activity,[2]; agonist: LPS (TLR4) 0.1 ug/mL,1.35
N#C/C(=C/c1ccc(-c2cc(Cl)ccc2Cl)o1)C(=O)Nc1cccc2ncccc12 (library stock concentration (final ~1000-fold dilution): 10 mM),IRF Lucia reporter activity,[3]; [5],0.777
same,IRF Lucia reporter activity,[3]; agonist: LPS (TLR4) 0.1 ug/mL,1.08
N#C/C(=C/c1ccc(-c2cc(Cl)ccc2Cl)o1)C(=O)Nc1cccc2ncccc12,IRF Lucia reporter activity,[1]; [6],1.4
